# Experimental data taken from PubChem BioAssay AID504332 (National Center for Advancing Translational Sciences (NCATS), 2011).
# Screen size: about 350,000 compounds; about 31,000 (8.9%) were called active. Inconclusive results, whose numbers are uncertain, are shown with a selection of clear calls. Calls follow the shape of the dose curve; as a rule, active = well fitted inhibition curve with a large enough effect; inconclusive = small, poorly fitted or top-dose-only effect; inactive = no such curve, though single readings can be large or run the other way. Potencies beside an inconclusive call are fits to weak or partial responses and may not hold up.
# Molecular target: Histone-lysine N-methyltransferase EHMT2 (Homo sapiens) (UniProt Q96KQ7)
# Test: qHTS Assay for Inhibitors of Histone Lysine Methyltransferase G9a; also: nearly all actives have a fitted effect of over 75% in size
# Conditions: G9a H3K9 monomethylation, AlphaScreen, 2 h; activity, negative = inhibition: at 59 µM (top of the series) unless noted
# In short: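 Readings reflect AlphaScreen signal from monomethyl-H3K9 antibody detection. HMT at 20 nM; substrate b-H3K9 500 nM; cofactor SAM 20 uM; 2 h RT reaction; compounds tested as titrations in qHTS with 15 min preincubation.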
# % is scaled to controls: 0 for no effect and ±100 for the full control effect; potency is read from the fitted curve at half-maximal effect; tags tell the direction and shape of the fitted curve.
# Sequence of UniProt Q96KQ7 (Q96KQ7 whole entry, looked up): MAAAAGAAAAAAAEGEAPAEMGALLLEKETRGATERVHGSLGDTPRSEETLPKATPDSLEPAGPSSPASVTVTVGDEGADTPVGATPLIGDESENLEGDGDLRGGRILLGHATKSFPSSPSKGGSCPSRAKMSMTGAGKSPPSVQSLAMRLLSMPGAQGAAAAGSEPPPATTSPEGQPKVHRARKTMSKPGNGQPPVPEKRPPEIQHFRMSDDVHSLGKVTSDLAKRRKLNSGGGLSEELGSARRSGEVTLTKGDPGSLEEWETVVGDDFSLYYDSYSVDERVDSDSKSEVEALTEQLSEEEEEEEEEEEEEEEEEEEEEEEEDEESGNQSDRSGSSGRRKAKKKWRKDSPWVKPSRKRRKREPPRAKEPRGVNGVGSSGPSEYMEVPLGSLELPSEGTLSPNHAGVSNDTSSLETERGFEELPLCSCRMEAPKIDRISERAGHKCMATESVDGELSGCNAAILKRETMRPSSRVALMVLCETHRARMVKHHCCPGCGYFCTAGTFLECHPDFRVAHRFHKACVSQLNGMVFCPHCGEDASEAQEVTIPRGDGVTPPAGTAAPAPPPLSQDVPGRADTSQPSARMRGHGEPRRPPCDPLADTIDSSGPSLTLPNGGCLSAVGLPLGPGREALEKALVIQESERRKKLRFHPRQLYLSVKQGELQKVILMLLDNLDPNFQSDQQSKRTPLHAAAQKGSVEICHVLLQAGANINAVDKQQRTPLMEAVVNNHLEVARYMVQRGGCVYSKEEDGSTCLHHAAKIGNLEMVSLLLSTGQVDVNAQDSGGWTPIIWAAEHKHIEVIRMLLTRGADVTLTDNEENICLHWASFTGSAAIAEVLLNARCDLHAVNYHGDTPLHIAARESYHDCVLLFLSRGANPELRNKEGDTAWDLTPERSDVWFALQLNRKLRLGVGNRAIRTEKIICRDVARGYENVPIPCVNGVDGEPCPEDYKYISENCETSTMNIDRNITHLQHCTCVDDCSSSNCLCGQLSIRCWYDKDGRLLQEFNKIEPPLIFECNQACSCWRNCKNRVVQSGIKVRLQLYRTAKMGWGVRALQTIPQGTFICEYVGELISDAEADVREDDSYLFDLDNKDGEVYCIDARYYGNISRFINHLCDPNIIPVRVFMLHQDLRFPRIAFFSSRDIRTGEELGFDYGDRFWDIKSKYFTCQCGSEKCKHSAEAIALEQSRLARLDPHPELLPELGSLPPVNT
SMILES,Potency,"activity, negative = inhibition"
Cn1c(=O)c2c(-c3ccccc3F)c3c(nc2n(C)c1=O)-c1ccccc1C3O (centres undefined),active: 10 µM,
CCOc1ccc2nc(N/C(N)=N/C(=S)Nc3cccc(OC)c3)nc(C)c2c1,"inconclusive: 25.1 µM [inhibitor, partial curve, poor fit]",
O=c1[nH]n2c(=O)c3c([nH]c2c1N=Nc1cccc(C(F)(F)F)c1)CCCC3,,inactive: -15.9%
COc1cccc(Nc2nc3c(S(=O)(=O)c4cc(C)ccc4C)nnn3c3ccsc23)c1,,inactive: -32%
O=C(Oc1oc(-c2ccco2)nc1C=Nc1ccccc1)c1ccco1,"inconclusive: 5.01 µM [inhibitor, partial curve]",
Cc1ccc(NC(=O)COC(=O)CSCC(=O)Nc2cc(C)on2)c(C)c1,"inconclusive: 89.1 µM [inhibitor, single point]",
Cc1ccc2nc(SCC(=O)N3CCCC3)[nH]c2c1,"inconclusive: 100 µM [inhibitor, single point]",
CC(=O)Nc1ccc(NC(=O)CCCc2ccccc2)cc1,,inactive: 23.3% [at 102 µM]
Cc1cccc(C(=O)N2CCc3cc(-c4csc(NC(=O)CN5CCCC5)n4)ccc32)c1,"inconclusive: 39.8 µM [inhibitor, single point]",
Cc1ccc(NC(=O)C2=CCN(S(=O)(=O)c3ccc(F)cc3)CC2)c(C)c1,"inconclusive: 79.4 µM [inhibitor, partial curve, poor fit]",
COc1ccc(-c2cccc([C@H]3[C@@H]4C=CC[C@@H](C)[C@@H]4C(=O)N3Cc3ccccc3)c2)cc1,"inconclusive: 3.55 µM [inhibitor, partial curve, poor fit]",
C[C@@H](CCc1ccccc1)NC[C@H](O)c1ccc(O)c(C(N)=O)c1,,inactive: -5.82% [at 12.7 µM]
Cc1cccn2c(=O)c(C(=O)NC(C)c3ccccc3)c(O)nc12 (centres undefined),,inactive: -27.6%
COCCn1c(=S)[nH]c2cc(C(=O)NCCc3ccccc3)ccc2c1=O,"inconclusive: 79.4 µM [inhibitor, single point]",
COc1ccc(S(=O)(=O)Nc2cc(OC)c(NC(=O)c3ccco3)cc2OC)cc1,"inconclusive: 70.8 µM [inhibitor, single point]",
COc1ccc(CNc2oc(/C=C/c3cc(OC)c(OC)c(OC)c3)nc2C#N)cc1,"inconclusive: 35.5 µM [inhibitor, partial curve, poor fit]",
CCN(CC)Cc1c(C(=O)N/N=C(\C)c2ccncc2)nnn1-c1nonc1N,,inactive: 14.9% [at 102 µM]
O=C(COc1ccc(Cl)cc1)NCC(c1ccco1)S(=O)(=O)c1ccc(F)cc1 (centres undefined),,inactive: -2.16%
COc1c2ccccc2c(OC)c2ccccc12,"inconclusive: 79.4 µM [inhibitor, partial curve, poor fit]",
Cc1onc(-c2ccccc2)c1C(=O)O/N=C(\N)c1ccc([N+](=O)[O-])o1,active: 44.7 µM,
CC(C)CCNC(=O)c1ccc(CSCc2cccc(F)c2)o1,"inconclusive: 89.1 µM [inhibitor, partial curve, poor fit]",
O=C(Cc1ccc(Cl)cc1Cl)OCC(=O)N1CCCCC1,,inactive: 2.42% [at 102 µM]

SMILES,Potency,"activity, negative = inhibition"
Cc1ccc(NC(=S)N/N=C/c2cccn2Cc2ccccc2F)cc1,,inconclusive: -84% [inhibitor]
O=C(/C=C/c1cccs1)Nc1cccnc1,"inconclusive: 8.91 µM [inhibitor, partial curve, poor fit]",
CN1CCCCC1CCN1c2ccccc2Sc2ccc(S(C)=O)cc21 (centres undefined),active: 5.62 µM,
CCN(CC)S(=O)(=O)c1ccc(C(=O)NC2CC(=O)N(c3ccc(OC)c(OC)c3)C2)cc1 (centres undefined),,inactive: 0.593%
COc1ccc(Cl)cc1NC(=O)Cn1nc(C(F)(F)F)c2c1CCCC2,,inactive: 27.6%
Cc1cc(C(=O)COC(=O)c2ccc3c(c2)OCO3)c(C)n1CC1CCCO1 (centres undefined),active: 50.1 µM,
CCn1c(C)nc2cc(S(=O)(=O)C(F)(F)C(F)C(F)(F)F)ccc21 (centres undefined),"inconclusive: 79.4 µM [inhibitor, partial curve, poor fit]",
COc1cc(CCC(=O)OCC(=O)c2ccc[nH]2)cc(OC)c1OC,"inconclusive: 0.224 µM [inhibitor, full curve, poor fit]",
CCc1ccc(N2CC(C(=O)OCC(=O)NC3CCS(=O)(=O)C3)CC2=O)cc1 (centres undefined),"inconclusive: 31.6 µM [inhibitor, single point]",
Cc1cc(N2C(=O)C(O)=C(C(=O)c3ccco3)C2c2ccc(Cl)cc2)no1 (centres undefined),"inconclusive: 39.8 µM [inhibitor, partial curve, poor fit]",
COCCCn1c(SCC(=O)Nc2ccc(F)cc2)nc2c(sc3ccccc32)c1=O,,inactive: -0.794%
COc1cccc(CNC(=O)COC(=O)c2cc(Br)c(Br)s2)c1,,inactive: 77.9% [at 12.7 µM]
Cc1ccc(C)n1-n1c(C)nc2sc(-c3ccccc3)cc2c1=O,active: 14.1 µM,
CCOP(=O)(OCC)c1nc(-c2ccc(Cl)cc2Cl)oc1N1CCCCC1,"inconclusive: 89.1 µM [inhibitor, partial curve, poor fit]",
Cc1ccccc1OCC(=O)Nc1ccccc1N1CCCCC1,"inconclusive: 39.8 µM [inhibitor, single point]",
Cc1ccc2cc(C)c(SCC(=O)NCc3ccco3)nc2c1,"inconclusive: 15.8 µM [inhibitor, partial curve, poor fit]",
O=C(COc1ccc(Br)cc1)N/N=C1/SCC(=O)N1Cc1ccco1,,inactive: -43.6% [at 102 µM]
CCC(C)(C)n1nnnc1C(c1ccc(C)cc1)N1CCN(Cc2cccnc2)CC1 (centres undefined),"inconclusive: 79.4 µM [inhibitor, single point]",
COc1ccc(Cl)cc1NC(=O)CCN1CCN(C)CC1,,inactive: 18.5% [at 12.7 µM]
COCCCn1c(=O)c2sccc2n2c(CCCC(=O)Nc3cccc(OC)c3)nnc12,,inactive: -26.3%
O=S(=O)(NCC1CCN(c2ccc(S(=O)(=O)N3CCOCC3)cc2)CC1)c1ccccc1,"inconclusive: 63.1 µM [inhibitor, partial curve, poor fit]",
CN(C)C(=O)CCN1CCOCC1,"inconclusive: 79.4 µM [inhibitor, partial curve]",
